# Reference: PMC4336329 (PLoS ONE, 2015)
# Screen size: about 310,000 compounds; about 14,000 (4.5%) showed an effect of 50% or more. The effect is printed as a negative number. Some of the results follow.
# Biological target: human ether-à-go-go-related gene (hERG) potassium channel (human, UniProt Q12809)
# Experiment: primary screen, population patch clamp on CHO cells stably expressing hERG
# 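Also: peak tail current of the secondary pulse compared with the same well before compound.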
# Sequence of human ether-à-go-go-related gene (hERG) potassium channel (Q12809 whole entry, looked up): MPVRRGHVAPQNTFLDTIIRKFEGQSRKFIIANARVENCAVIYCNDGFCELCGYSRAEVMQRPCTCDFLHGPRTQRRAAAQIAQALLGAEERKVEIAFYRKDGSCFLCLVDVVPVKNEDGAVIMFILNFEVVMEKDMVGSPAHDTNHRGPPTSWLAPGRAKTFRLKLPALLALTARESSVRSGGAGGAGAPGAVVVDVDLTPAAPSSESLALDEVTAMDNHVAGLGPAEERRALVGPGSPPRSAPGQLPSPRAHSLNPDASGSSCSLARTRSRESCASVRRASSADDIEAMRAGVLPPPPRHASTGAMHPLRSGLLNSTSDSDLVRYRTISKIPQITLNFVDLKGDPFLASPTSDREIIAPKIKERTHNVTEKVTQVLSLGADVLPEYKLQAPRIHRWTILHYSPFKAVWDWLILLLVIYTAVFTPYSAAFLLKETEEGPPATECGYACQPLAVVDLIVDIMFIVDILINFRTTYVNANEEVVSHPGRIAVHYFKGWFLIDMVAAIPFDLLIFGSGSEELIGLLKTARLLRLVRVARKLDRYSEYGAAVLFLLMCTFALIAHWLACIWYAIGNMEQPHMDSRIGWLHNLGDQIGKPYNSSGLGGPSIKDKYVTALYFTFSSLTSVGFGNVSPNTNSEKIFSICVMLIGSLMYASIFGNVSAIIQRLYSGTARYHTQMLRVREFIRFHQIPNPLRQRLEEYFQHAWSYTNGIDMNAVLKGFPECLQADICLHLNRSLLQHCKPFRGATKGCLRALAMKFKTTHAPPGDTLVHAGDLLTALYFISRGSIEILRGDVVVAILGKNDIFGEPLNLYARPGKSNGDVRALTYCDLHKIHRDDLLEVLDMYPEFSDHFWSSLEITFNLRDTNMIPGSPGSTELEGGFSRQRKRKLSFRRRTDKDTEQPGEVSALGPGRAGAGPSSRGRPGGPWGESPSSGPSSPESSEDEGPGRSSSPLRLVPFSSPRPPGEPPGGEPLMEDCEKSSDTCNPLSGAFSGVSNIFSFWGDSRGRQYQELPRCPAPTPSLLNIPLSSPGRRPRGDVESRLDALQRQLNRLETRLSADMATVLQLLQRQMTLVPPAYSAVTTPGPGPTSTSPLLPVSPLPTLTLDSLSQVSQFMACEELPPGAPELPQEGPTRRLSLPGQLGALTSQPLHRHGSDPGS
row,SMILES,"hERG current change (%, negative = inhibition) at 10uM [%]"
1,COc1ccc2c(c1)c(C(=O)N/N=C/c1ccc(OC)c(OC)c1)c(C)n2C,-39.2
2,Cc1nnc(NC(=O)CSc2ncn(-c3ccccc3)n2)s1,-3.65
3,Cc1cc(C)cc(NC(=O)C(NCC2CCCO2)c2ccccc2)c1.O=C(O)C(=O)O (centres unmarked),-35.5
4,COc1ccc2[nH]c(=O)c(CNc3ccccc3C)cc2c1,-0.585
5,COc1ccc(/C=C/c2onc(C)c2S(=O)(=O)N2CCC(C(=O)N3CCCCCC3)CC2)cc1,2.32
6,CCOC(=O)c1c(C)[nH]c(C(=O)OCc2ccc([N+](=O)[O-])cc2)c1C,13.4
7,CCCCN(CCCNC(=O)c1c(C)cc(=O)oc1C)c1ccccc1,-64.4
8,Cc1cc(N/C=C(\C#N)S(=O)(=O)c2ccc(Cl)cc2)nc(C)n1,-25.3
9,CCCC(C)C(=O)Nc1nnc(C)s1 (centres unmarked),-2.87
10,CCN(CC)S(=O)(=O)c1ccc(N2CCOCC2)c(NS(=O)(=O)c2cccs2)c1,-15.3
11,CC(=O)N(c1cccc(Br)c1)C1C=CS(=O)(=O)C1 (centres unmarked),0.97
12,CCOc1ccccc1C(=O)Nc1ccccc1C(N)=O,-1.33
13,CCC(=O)NCCNc1nc2cc(C)c(C)cc2cc1C#N,3.21
14,Cc1onc(NC(=O)NC(=O)c2c(F)cccc2Cl)c1Br,2.3
15,CCOC(=O)C(C)Oc1ccsc1C(=O)OC (centres unmarked),2.46
16,COc1cccc(C(=O)NCC(=O)NNc2ncnc(N)c2[N+](=O)[O-])c1,15.3
17,CCOC(=O)c1sc2ncn(CC(=O)Nc3cc(C)on3)c(=O)c2c1C,14.4
18,CN(C)CCCN(Cc1ccc2c(c1)OCO2)C(=O)NC1CCCCC1,-32.7
19,COC(=O)c1cccc(-n2c(C)cc(C=O)c2C)c1,-0.631
20,Cc1cc(Nc2c(C)n(C)n(-c3ccccc3)c2=O)c2ccccc2n1,-20.3
21,CNC(C(=O)c1ccccc1)C(OC)c1cccc([N+](=O)[O-])c1.[O-][Cl+3]([O-])([O-])O (centres unmarked),5.26
22,CN1/C(=C\C(=O)c2cccnc2)C(C)(C)c2ccccc21,-21.5
23,COC(=O)c1ccc(/C=N/NC(=O)CC(=O)NCC(C)C)cc1,20.5

row,SMILES,"hERG current change (%, negative = inhibition) at 10uM [%]"
1,CCOC(=O)C1CCN(C/C=C/c2ccccc2)CC1,-28.2
2,Cc1ccc(C)c(S(=O)(=O)Nc2cc3c4c(c2)CCC(=O)N4CCC3)c1,7.7
3,COC(=O)C1=C(c2ccc(-c3ccccc3)c(F)c2)C[C@@H]2CC[C@H]1N2C(=O)NCc1ccc(F)cc1,19.8
4,COc1cc2c(cc1NC(=O)C(C)N1CCN(S(=O)(=O)c3ccc(C)c(C)c3)CC1)oc1ccccc12 (centres unmarked),26.7
5,Cc1ccc(C2C(C#N)=C(N)Oc3cc4c(cc32)OCO4)cc1 (centres unmarked),9.19
6,CCCCOc1ccc(Cl)cc1Nc1nc(NCCO)nc(N2CCCC2)n1,12.2
7,CCCC(=O)NC(=S)Nc1ccccc1OC,6.4
8,O=C1/C(=C/c2ccccn2)SC(=S)N1NS(=O)(=O)c1ccccc1,14.9
9,COc1ccccc1NC(=O)C1=C(C)Nc2nc(-c3ccc(N(C)C)cc3)nn2C1c1ccncc1 (centres unmarked),-19
10,Cc1ccc(C(=O)NC(=S)Nc2cccnc2Cl)cc1,-37.7
11,CCn1c(=O)c(=O)[nH]c2cc(C(=O)NC(C)c3ccc(S(N)(=O)=O)cc3)ccc21 (centres unmarked),3.47
12,O=C(c1cccc(C(F)(F)F)c1)N1CCc2c([nH]c3ccccc23)C1C(F)(F)F (centres unmarked),2.05
13,CCOC(=O)[C@H]1[C@H]2COc3ccc(Cl)cc3[C@@H]2N2C(=O)CN(Cc3ccc(OC)cc3)C(=O)[C@@]12C,-5.65
14,CC(=O)Nc1ccc(NS(=O)(=O)c2cccc3nonc23)cc1,23.9
15,COC(=O)c1[nH]c(C)c(/C(O)=C2\C(=O)C(=O)N(CCN(C)C)C2c2ccco2)c1C (centres unmarked),5.34
16,CC1CCCN(c2nc3ccccc3nc2C(C#N)S(=O)(=O)c2cccs2)C1 (centres unmarked),4.13
17,Cc1ccc(C)c(NS(=O)(=O)c2ccccc2C)c1,-21.1
18,O=C(NC(Cc1ccccc1)C(=O)O)C1CCN(S(=O)(=O)c2cccc(C(F)(F)F)c2)CC1 (centres unmarked),19.2
19,CCOC(=O)c1ccc(COC(=O)c2cc(=O)[nH]c3ccccc23)o1,-1.04
20,CC1=NNC(=O)C1CC(=O)N/N=C/c1sccc1C (centres unmarked),4.63
21,Cc1ccc(OCC(=O)NNC(=O)C2CCC2)cc1C,11.9
22,COc1ccc2nc(SCC(=O)/C(C#N)=C(\C)N)[nH]c2c1,-11.9
23,Cc1ccc(S(=O)(=O)Nc2c(C)n(C)n(-c3ccccc3)c2=O)cc1C(=O)NCc1ccccc1,-3.31

row,SMILES,"hERG current change (%, negative = inhibition) at 10uM [%]"
1,CCN(CC)c1ccc(N=Cc2c(O)n(Cc3ccco3)c(=O)[nH]c2=O)cc1,3.93
2,Cc1nnc(SCC(=O)Nc2nccs2)[nH]c1=O,14
3,CCCCNC(=O)CN(c1cccc(Br)c1)S(C)(=O)=O,-4.67
4,COc1ccc(C(=O)N2CCOC23CCN(c2ncccn2)CC3)cc1,6.88
5,CCS(=O)(=O)n1nc(NCc2cccc(OC)c2)nc1NCc1cccc(OC)c1,-21.1
6,CC(C)CC(=O)C1CCCN(C(=O)c2ccc3oc(Cc4ccccc4)nc3c2)C1 (centres unmarked),-18.4
7,Cc1cc(C)c2c(NC(N)=S)n[nH]c2n1,9.01
8,Cc1cccc(S(=O)(=O)N2CCCc3ccccc32)c1,22.1
9,CCN(CC)C(=O)COc1coc(CN2CCN(c3ccc(F)cc3)CC2)cc1=O,1.88
10,COCCN1CCN(C(=O)C2CCC(=O)N(Cc3ccccc3F)C2)CC1 (centres unmarked),1.48
11,O=C(Nc1ccc(F)cc1F)c1ccc(-n2cccn2)c([N+](=O)[O-])c1,-13.3
12,C(#CC1CCCC1)c1ccc2c(c1)COc1c3ccccc3nn1-2,14
13,Cc1ccc(C(=O)NNC(=O)Cn2ccc(C(F)(F)F)n2)o1,13.2
14,CCCCn1c(N)c(N(CC)C(=O)c2ccc(Cl)c(Cl)c2)c(=O)[nH]c1=O,13
15,CCC(c1nnnn1CCOC)N1CCN(C(=O)c2ccco2)CC1.Cl (centres unmarked),9.17
16,C=CCn1c(SCN2C(=O)c3ccccc3C2=O)nc2ccc(Cl)cc2c1=O,24.3
17,COc1cc(S(=O)(=O)Nc2ccc(Br)cc2)ccc1N,-6.01
18,Cc1ccc(C)c(OCCC(=O)OCC(=O)Nc2ccc(Cl)cn2)c1,-26.3
19,O=C1CCC/C1=C\c1ccccc1,-1.9
20,Cc1ccc(C)c(S(=O)(=O)N2CCCOC2CNC(=O)C(=O)NCCN2CCOCC2)c1 (centres unmarked),19.5
21,CC1CC(=O)Nc2ccccc2N1S(=O)(=O)c1cccc(F)c1 (centres unmarked),9.89
22,Cc1ccc(-c2ccc(CCC(=O)O)n2NC(=O)c2ccc([N+](=O)[O-])cc2)cc1,23.8
23,Cc1ccc(C(=O)Nc2nnc(C)s2)cc1,21.5

row,SMILES,"hERG current change (%, negative = inhibition) at 10uM [%]"
1,CN(CCCN1CCOCC1)Cc1nc(-c2ccccc2)no1,-9.02
2,CN1CCN(C(=O)C2=C[C@H](C3CCCCC3)C[C@H](OCc3ccc(CO)cc3)O2)CC1,-61.7
3,O=C(NNc1cccc(Cl)n1)C(F)(F)F,17.2
4,O=C(CCC(=O)OCc1ccc([N+](=O)[O-])cc1)Nc1ccccc1Cl,13
5,Br.CC(C)(C)C(=O)Cn1c(NCCO)nc2ccccc21,5.72
6,COc1ccc(N2CCN(C(=O)c3cc4c(C)nc5ccccc5c4o3)CC2)cc1,-47
7,COc1ccc(C2=C(N)c3ccccc3C2=O)cc1,5.02
8,CN1CCN(C(=O)c2ccccc2NC(=O)c2cccs2)CC1,2.94
9,O=C(N/N=C/c1ccc(C(F)(F)F)cc1)c1ccc(O)cc1,-7.8
10,COC(=O)Cn1cnc2c(nnn2-c2ccc(F)cc2)c1=O,6.52
11,CCCn1c(N)c(C(=O)CSc2nc(C)nc3sc(C)c(C)c23)c(=O)[nH]c1=O,15.6
12,COc1ccc(NS(=O)(=O)c2ccc(N)cc2)nn1,17.2
13,O=C(c1sccc1Br)N1CCN(Cc2ccc3c(c2)OCO3)CC1,-11
14,CN(C)c1nc(-c2ccccc2)nc(-c2ccc(Cl)cc2)c1C#N,8.49
15,COc1ccccc1OCC(=O)NNC(=O)Nc1ccc(Cl)cc1,6.44
16,Cc1cc(=O)oc(C)c1C(=O)NCc1ccccc1,11.2
17,CCc1cc(=O)oc2c(C)c(O)c(CN3CCCCC3)cc12,-0.833
18,N#Cc1c2n(c(=S)n(-c3ccccn3)c1=O)CCCCC2,-24.2
19,CCOC(=O)N/N=C/c1cn(Cc2ccccc2Cl)c2ccccc12,-1.51
20,CC(C)NC(=O)C1CCN(C2CCN(Cc3nc(C(C)C)cs3)CC2)CC1,-49.5
